# Data taken from the supplement of paper PMC10126150.
# Values marked as one replicate rest on one cluster of the flow cell; about a third of the high ones do not repeat.
# Test system: ATP
# Assay: switch fluorescence ratio, 500 uM ATP over buffer (Cy3 cluster intensity, sum of 5 cycles each) (fold (ratio)); higher = stronger signal-on switching upon ATP binding; sequences stand for … in TCGTCGGCAGCGTCAGATGTGTATAAGAGACAGTTTTTTTTTTTTTTTTTTTTTTTTT…TC
# Settings: aptamer strand: ATP DNA aptamer (quencher-CACCTGGGGGAGTATTGCGGAGGAAGG + anchor), 100 nM annealed; ATP concentration: 500 uM; one replicate
# How it was run: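 Between each of five buffer/ATP cycles, the flow-cell was stripped with NaOH and re-annealed. Each cycle imaged Cy3-labelled switching-strand clusters, annealed to 100 nM quencher-labelled ATP aptamer on a modified Illumina MiSeq flow-cell, first in selection buffer and then after 15 min with 500 uM ATP at 22 °C. The fluorescence ratio is summed target-cycle over summed buffer-cycle Cy3 intensity per cluster, averaged per switch-domain sequence, with clusters outside 100-1000 RFU excluded.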
# 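Further: ATP exposure 15 min at 22 °C before imaging.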
row,Sequence,switch fluorescence ratio
1,GGGTGGGAAG,1.01
2,GCCGGGGGCC,0.982
3,CTTATCTTA,1.02
4,AAAATTGTTC,0.978
5,CATCATGAGG,0.986
6,TTCCGGCGAT,1.04
7,AGGCGGCTCG,0.981
8,GAGGCAAGCG,1.15
9,CTACTAAGAG,0.993
10,TTCGCTGTG,1.05
11,TAAAAATAAG,1.03
12,ACATCTGGGG,1.02
13,ACTAGCTTTG,0.98
14,AGTGAAGTAC,1.24
15,AGTTATTCTC,1.44
16,TCTCCAGATT,0.997
17,CCCAATGGGT,0.994
18,TAGCCACGAA,1
19,TACATATCCC,1.01
20,AATTTCTGCT,0.983
21,TAGACCTTAC,3.15
22,GACTTCGTTT,1.01
23,GACTATGGGT,0.95

row,Sequence,switch fluorescence ratio
1,TAAACGTTCT,1.11
2,ATACTTCATA,1.02
3,TGTTGGCAGT,1.03
4,CTCGATACTT,1.08
5,TGCTTGCATG,0.955
6,CAGTCGTTCC,1.27
7,ATACTATGGC,0.991
8,ATGAGAACAG,1.02
9,CAGATATAAG,0.943
10,CGACAATTCA,1.07
11,TAGTGCCAAC,0.993
12,GTGGTGTCCG,1.01
13,ACAAGTTTTT,1.08
14,CGCTTGGTGC,1.21
15,TTAGTCGTTC,1.05
16,CCATTGTTGG,1.03
17,CGCAAGAGTC,4.45
18,TGCGGTCGGG,0.996
19,ACTTTGATTC,1.01
20,ATCTAAGTCT,1.02
21,GGTGTTAAGT,0.987
22,ATGCGATGGG,1.01
23,TGTATTGTTG,0.985

row,Sequence,switch fluorescence ratio
1,TTGGGAAAC,0.992
2,CTATCGTCG,1.03
3,TATTTACGTG,1.03
4,TCAACGGC,1.14
5,CACTGTTAGC,1.1
6,AAGCGTGCAG,1.03
7,TCCACGATGT,1.03
8,GAAGAGAGAG,0.949
9,ATCGTTGCGA,0.968
10,CACGAATTCA,0.968
11,CACTCATGAG,0.977
12,CCTGACGTC,1.04
13,CATAGTGTGG,1.01
14,CCCACGGCTG,1.23
15,TATGTGGACC,1.03
16,GCGAGCCGCA,1.01
17,GGGCGCATTA,0.916
18,AAATTACGTA,1.18
19,TAGCTGCAGG,0.97
20,TGAGGTACCC,1.02
21,GACTGCTGCG,1
22,CATGGCTCCG,1.1
23,GTCTTGGGG,0.99

row,Sequence,switch fluorescence ratio
1,AAGTACCCCG,1.09
2,AGGTGACGGC,1.03
3,AGGCATTCAA,1.04
4,TGTGACACGC,1.02
5,CGGATTATGG,1.02
6,TTGGTTTTGG,0.979
7,TCACATGGC,0.984
8,GCAGGCTCGC,1.06
9,AGAATAGAAG,0.991
10,CTAACGGCGA,1.15
11,AAAGTCGTAG,0.951
12,TAGGACCATA,1
13,ACTTATTCCG,1.05
14,CACGATATAA,1.1
15,AGGTACGACA,1.02
16,TTTATAGCAA,1.79
17,CGAGCACGAT,1.15
18,ACAATCGGGA,1.01
19,GAGACGGGAC,1.09
20,TACGCCTTAG,0.989
21,AATTTACTCG,1.02
22,GATTGGGCGG,0.954
23,GCGTGTTGCG,1.04

row,Sequence,switch fluorescence ratio
1,GTAGGGTAGG,0.992
2,GGATGGGCAG,1.01
3,TAGCGGTACG,0.97
4,AGTGTTAAGT,0.989
5,AGGCGGGACT,1
6,TTCCCCTGTA,1.28
7,TTTGTCACGC,1.03
8,GCGCAAAAGC,0.992
9,CGTTGGCAAG,0.988
10,CCTCTAGAGA,2.14
11,GCCATGAAAA,0.951
12,GCGGCTTGAA,1.03
13,GCTGAGGTGT,1.08
14,GGAGTACACT,1.03
15,CAGATATGAG,1
16,TGCATTTTTC,1.03
17,AGTGGTATTC,0.942
18,CTAAAGGCC,1.01
19,CCTTGCGGAG,1.69
20,TTTCAAATTT,0.957
21,AGGTGCATGT,1.03
22,GAGTTGGATG,0.983
23,GTTCGGCTGT,0.963

row,Sequence,switch fluorescence ratio
1,TTCCCCGTGT,1.14
2,CACGCCTTTC,1.52
3,TAGATGGATT,0.984
4,TATGAGGTCG,0.942
5,TCTCAAAGTG,0.946
6,GTCGGGAATA,1.01
7,GGCCAAGTGA,0.967
8,GCCTCATCGT,0.977
9,TGAGTGTATG,0.995
10,CCAATTGGAT,0.988
11,CTAGGCGGTG,0.927
12,CAGCATTTAA,1.06
13,TATGTGTTTG,1.02
14,TATTCACATC,0.977
15,CCATAACTTT,1
16,AAATGATGCT,1.03
17,GTTGGGAA,0.964
18,TAGTTATATT,1.01
19,CGTGTTGAA,0.935
20,ACTGGTACGA,1.13
21,TGTAGGCGGG,0.953
22,GGATACGCGG,1.02
23,AAGCAGGATG,1.01

row,Sequence,switch fluorescence ratio
1,ACAAGCTGTG,0.945
2,GAATAAGCCT,1.19
3,TAGAGGTAG,0.949
4,GCGGGGAGCC,1
5,TATGGTCCCT,1.05
6,TTCAACAGGG,1.15
7,AGACATGGTG,0.958
8,CTCATGGAGT,0.946
9,TGCCGGTTTC,0.997
10,TAGACAGGC,0.995
11,TCTGTATGTC,0.974
12,CTACTGGCGG,1.01
13,ACTGCTCCTT,1.03
14,TAACTGGAAT,0.98
15,CGGGCTTTC,1.05
16,ATAATGTAAT,1.01
17,TTGCTTTGAT,1.1
18,CCATTCAGCG,1.06
19,ACTCACTGTG,1.16
